Test results taken from PubChem BioAssay AID624417 (National Center for Advancing Translational Sciences (NCATS), 2012).
About 6,400 (1.6%) of roughly 410,000 compounds were called active. This list was built around the results that the source calls inconclusive (neither active nor inactive); the mix of calls is not that of the screen. Calls come from the whole dose curve; as a rule, active = well fitted inhibition curve with a large enough effect; inconclusive = small, poorly fitted or top-dose-only effect; inactive = no such curve, though single readings can be large or run the other way. No potency is given beside an inconclusive call; the fits are too rough.

biological target: Glucagon-like peptide 1 receptor (Homo sapiens) (UniProt P43220); test: qHTS of GLP-1 Receptor Inverse Agonists (Inhibition Mode); conditions: HEK293 GLP-1R CRE-luciferase, luminescence, 24 h, GLP-1R form is constitutively active; activity change, negative = inhibition: at 38.3 µM (top of the series) unless noted; note: nearly all actives have a fitted effect of over 55% in size
Procedure, shortened: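 Readout was luciferase luminescence, measured 12 min after detection reagent at room temperature. Beforehand, GLP-1R reporter HEK293 cells had sat 12 h, then received compounds for 24 hr at 37 deg C.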
% is set by controls: 0 for no effect and ±100 for the full control effect; potency is the fitted concentration of half-maximal effect; tags give direction and shape of the fitted curve.

UniProt P43220, sequence (P43220 whole entry, looked up): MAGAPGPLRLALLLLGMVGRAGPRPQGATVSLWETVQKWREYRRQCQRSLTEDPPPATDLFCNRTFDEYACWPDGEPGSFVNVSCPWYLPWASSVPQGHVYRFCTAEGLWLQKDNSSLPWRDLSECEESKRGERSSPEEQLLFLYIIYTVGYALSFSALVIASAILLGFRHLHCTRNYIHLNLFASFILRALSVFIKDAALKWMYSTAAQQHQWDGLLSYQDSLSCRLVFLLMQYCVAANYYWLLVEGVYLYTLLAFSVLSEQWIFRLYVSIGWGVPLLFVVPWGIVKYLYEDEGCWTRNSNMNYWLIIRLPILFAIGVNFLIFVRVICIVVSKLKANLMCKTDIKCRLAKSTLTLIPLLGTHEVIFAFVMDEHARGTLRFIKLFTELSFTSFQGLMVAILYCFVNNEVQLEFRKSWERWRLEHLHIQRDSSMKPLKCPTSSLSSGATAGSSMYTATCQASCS

| SMILES | Potency | activity change, negative = inhibition |
| --- | --- | --- |
| COC(=O)C1=C(C)N(Cc2ccco2)C(=O)N[C@@H]1c1ccco1 | inconclusive [inhibitor, single point] |  |
| C/C(N)=C(/C#N)C(=O)CSc1nc2scc(-c3ccccc3)c2c(=O)n1C |  | inactive: 12.4% |
| COc1ccccc1C(C)NCC(=O)NCC(=O)Nc1ccc(F)c(F)c1F (configuration not stated) | inconclusive [inhibitor, full curve, poor fit] |  |
| COc1ccccc1CNC(=O)CCc1nc2ccccc2c(=O)[nH]1 |  | inactive: 4.69% |
| O=C(NNC(=O)c1ccccc1O)c1ccc(Cl)c(S(=O)(=O)N2CCCCC2)c1 | inconclusive [inhibitor, single point] |  |
| COc1ccc(NC(=O)CSc2ccc3nnc(-c4ccccn4)n3n2)c(OC)c1 |  | inactive: 18.4% |
| C[C@@H]1CN([C@H](C)CO)C(=O)CCCn2cc(nn2)CO[C@H]1CN(C)S(=O)(=O)c1ccc2ccccc2c1 |  | inactive: 12.5% |
| COc1cccc(CN(C)C(=O)c2cc(-c3ccc(F)cc3)nc3ccccc23)c1 | inconclusive [inhibitor, partial curve, poor fit] |  |
| O=C1CC(/C=C/c2ccncc2)=Nc2ccccc2N1 | active: 2.51 µM |  |
| COCc1cc(N2CCOCC2)nc(SCc2ccc(Cl)cc2)n1 | inconclusive [inhibitor, full curve, poor fit] |  |
| CC(NC(=O)CC1Sc2ccccc2NC1=O)c1ccccc1 (configuration not stated) | inconclusive [inhibitor, single point] |  |
| CC1CCN(S(=O)(=O)c2cccc(C(=O)N3CCN(c4ccc(F)cc4)CC3)c2)CC1 | inconclusive [inhibitor, single point] |  |
| Cc1ccc(-n2c(=O)c3c(C)c(C)sc3n(CC(=O)NCc3ccccc3)c2=O)cc1C |  | inactive: 2.98% |
| O=C(c1ccc2nccnc2c1)N1CCCC(N2CCN(c3ccc(F)cc3)CC2)C1 (configuration not stated) | inconclusive [inhibitor, partial curve, poor fit] |  |
| Cc1ccccc1C(=O)N1CCC(C(=O)Nc2cccc(S(=O)(=O)N3CCCCC3)c2)CC1 | inconclusive [inhibitor, single point] |  |
| Cc1ccc(CNC(=O)c2ccc3c(=O)n(CCCN4CCCC4=O)c(=S)[nH]c3c2)cc1 |  | inactive: 0% |
| CCn1c2ccccc2c2cc(/C=N/NC(=O)c3cccc(C)c3)ccc21 | inconclusive [inhibitor, full curve, poor fit] |  |
| O=C(O)c1ccc2c(c1)OCCO2 |  | inactive: 0.867% |
| Cc1cc(C)c(C(=O)N2CCCC(N3CCN(c4cccc(C(F)(F)F)c4)CC3)C2)o1 (configuration not stated) | inconclusive [inhibitor, partial curve, poor fit] |  |
| Cc1cccc(NC(=O)N2C3CCCC2CC(NC(=O)C(C)(C)C)C3)c1 (configuration not stated) |  | inactive: -5.07% |
| O=C(C1CCCN(Cc2ccccc2[N+](=O)[O-])C1)N1CCCCC1 (configuration not stated) |  | inactive: 5.04% |
| C=CCn1c(-c2ccc(Cl)cc2)cnc1SC(C)C(=O)NC(N)=O (configuration not stated) | inconclusive [inhibitor, partial curve, poor fit] |  |
| Cc1nc(SCC(=O)c2c[nH]c3ccccc23)n[nH]1 |  | inactive: 7.33% |

| SMILES | Potency | activity change, negative = inhibition |
| --- | --- | --- |
| NC(Cc1ccc(Cl)cc1)c1csc(Nc2ccc(C(=O)NCCCO)cn2)n1 (configuration not stated) | inconclusive [inhibitor, partial curve, poor fit] |  |
| O=C(O)c1ccc(/C=N/N2CCN(c3ccccc3)CC2)cc1 |  | inactive: 6.97% |
| COc1cc(/C=C2/SC(=S)N(Cc3ccccc3)C2=O)ccc1OS(C)(=O)=O |  | inactive: 1.88% |
| Cc1cccc(NC(=O)C2CCCN2S(=O)(=O)c2ccc3nc(-c4ccccc4)[nH]c3c2)c1 (configuration not stated) | inconclusive [inhibitor, partial curve, poor fit] |  |
| CN(CC(=O)NC(=O)NCc1ccccc1)CC(=O)Nc1ccc(Cl)c(Cl)c1 | inconclusive [inhibitor, single point] |  |
| Cc1ccc(NC(=O)CSc2n[nH]c(-c3ccccn3)n2)cc1 | inconclusive [inhibitor, single point] |  |
| Cc1nc2ccccn2c(=O)c1NC(=O)c1ccc(F)c(F)c1 |  | inactive: 1.52% |
| CCCn1c(C)cc(C(=O)COc2ccc(S(=O)(=O)N(CC)CC)cc2[N+](=O)[O-])c1C | inconclusive [inhibitor, partial curve, poor fit] |  |
| O=C(CCN1CCN(c2ccccc2F)CC1)c1ccc(Br)cc1 | inconclusive [inhibitor, full curve, poor fit] |  |
| O=C(Oc1ccccc1)N1CCN(c2ccccc2F)CC1 |  | inconclusive: -38.3% [inhibitor] |
| O=C(N/C(=C/c1cccc(Br)c1)c1nc(=S)[nH][nH]1)c1ccccc1 | inconclusive [inhibitor, single point] |  |
| O=C(CSc1nc2ccccc2c(=O)n1Cc1ccc(F)cc1)NCc1cccs1 |  | inactive: -17.4% |
| Cc1ccc2occ(/C=N/NC(=O)[C@@H](N)Cc3ccccc3)c(=O)c2c1 | inconclusive [inhibitor, single point] |  |
| COc1ccc(CC(=O)N/N=C(\C)c2ccccn2)cc1 | inconclusive [inhibitor, partial curve] |  |
| O=C(c1ccccc1)c1cc(-c2ccccc2)on1 | inconclusive [inhibitor, single point] |  |
| Cc1c(C(=O)N(C)C2CC(C)(C)NC(C)(C)C2)oc2c(F)cccc12 | inconclusive [inhibitor, partial curve, poor fit] |  |
| O=C(NCc1ccccc1)c1ccc(NC(=O)N2CC3CCCN3c3ccccc32)cc1 (configuration not stated) | inconclusive [inhibitor, single point] |  |
| Cn1cccc1Cc1nnc(SCC(=O)NCc2ccccc2Cl)n1-c1ccc(F)cc1 | inconclusive [inhibitor, single point] |  |
| CCOc1cc(NC(=O)c2ccco2)c(OCC)cc1NC(=O)CCc1ccccc1OC | inconclusive [inhibitor, partial curve, poor fit] |  |
| CCN(CC)S(=O)(=O)c1cccc(NC(=O)COC(=O)C2CC3C=CC2C3)c1 (configuration not stated) | inconclusive [inhibitor, single point] |  |
| CCOC(=O)c1c(NC(C)=O)sc2c1CCC(C=NCCCN(CC)CC)=C2Sc1ccccc1 |  | inactive: -21.7% |
| C=CCNC(=S)NNC(=O)c1ccc(OCCCC)cc1 | inconclusive [inhibitor, partial curve, poor fit] |  |
| O=C(COc1cccc(C(F)(F)F)c1)NCC(c1ccco1)N1CCCC1 (configuration not stated) | inconclusive [inhibitor, single point] |  |

| SMILES | Potency | activity change, negative = inhibition |
| --- | --- | --- |
| N#Cc1nc(COc2ccc(F)cc2)oc1N1CCC(Cc2ccccc2)CC1 | inconclusive [inhibitor, partial curve, poor fit] |  |
| CCCN(CCC)c1ccc(C2N=C(N)Nc3nc4ccccc4n32)cc1 (configuration not stated) |  | inactive: 9.7% |
| COc1cccc(C(=O)Nc2cccc(-c3ccccc3)c2)c1 | inconclusive [inhibitor, partial curve, poor fit] |  |
| COc1ccc(NC(=O)c2cc3c(s2)-c2c(C)cccc2OC3)cc1Cl |  | inactive: -0.405% |
| CCS(=O)(=O)N(CC(=O)Nc1cccc2ccccc12)c1ccc(OC)cc1 | inconclusive [inhibitor, single point] |  |
| CN(C)C(CNC(=O)CNC(=O)Cc1cccc2ccccc12)c1ccccc1 (configuration not stated) | inconclusive [inhibitor, partial curve, poor fit] |  |
| C[C@H](CO)N1C[C@H](C)[C@@H](CN(C)S(=O)(=O)c2ccccc2)OCCCC[C@H](C)Oc2ccc(NC(=O)CCC(F)(F)F)cc2C1=O |  | inactive: -0.393% |
| COc1cc(C(=O)N2CCOC23CCN(Cc2ccccc2)CC3)cc(OC)c1OC |  | inactive: -13.8% |
| Cn1c(CN2CCCC2)nc2cc(NC(=O)COc3ccc([N+](=O)[O-])cc3)ccc21 | inconclusive [inhibitor, single point] |  |
| Cc1ccccc1-c1nc(CN2CCC(C(=O)NCc3ccc(F)cc3)CC2)c(C)o1 | inconclusive [inhibitor, partial curve] |  |
| N#CCC(=O)Nc1ccc(C(=O)OCC(=O)NC2CCCc3ccccc32)cc1 (configuration not stated) |  | inactive: -5.83% |
| O=[N+]([O-])c1cc(-c2ncccn2)c([N+](=O)[O-])s1 | inconclusive [inhibitor, single point] |  |
| O=C(O[C@@H]1[C@H](Cc2ccccc2)NS(=O)(=O)[C@H]2C[C@@H]3C=C[C@]12O3)c1ccccc1Br | inconclusive [inhibitor, single point] |  |
| Cc1ccn2c(Nc3ccc4c(c3)OCCO4)c(-c3ccc(C)o3)nc2c1 |  | inactive: -21.6% |
| O=S(=O)(c1c(Cl)sc(Cl)c1Br)N1CCCC1 | inconclusive [inhibitor, partial curve, poor fit] |  |
| O=[N+]([O-])c1ccccc1NC1CCN(Cc2ccccc2)CC1 | inconclusive [inhibitor, partial curve] |  |
| CC(C)=C1C2CCC1C1C(=O)N(c3nc(-c4ccc(C(C)C)cc4)c(C)s3)C(=O)C21 (configuration not stated) | inconclusive [inhibitor, partial curve, poor fit] |  |
| Cc1cccc(CSc2nnc(CCCCCNC(=O)OC(C)(C)C)o2)c1 | active: 7.08 µM |  |
| O=C/C(=C\Nc1ccc(S(=O)(=O)CCO)cc1)c1nc2cc(Cl)ccc2o1 |  | inactive: 1.92% |
| Nn1c(Nc2ccccc2)nc2sc3c(c2c1=O)CCC3 | inconclusive [inhibitor, single point] |  |
| O=C(CC1CCCC1)N1CCCC(Nc2cccc(F)c2)C1 (configuration not stated) | inconclusive [inhibitor, single point] |  |
